# Measured values as given in ChEMBL document CHEMBL1201862, “PubChem BioAssay data set” (2004).
#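 Grown in 96-well plates, cells were treated for 48 hours with each compound at five concentrations. Insufficient inhibition: endpoint recorded as highest concentration tested. GI50: concentration for 50% inhibition of growth.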 Calls of active or inactive are those of the source. Rule as the data show it: active = GI50 up to about 1.1 µM and inactive = higher. Peptide text beside a SMILES is read from it.
# System: NCI-H322M
# Experiment: DTP human tumour cell line panel, 48 h
row,Structure (SMILES),GI50
1,C=CCSc1nn(CC=C)cc2ncnc1-2,inactive: > 100 µM
2,CC(=O)OCC1CCC(=C2C(=O)OC(C)(C)OC2=O)N1 (stereo unspecified),inactive: > 100 µM
3,CCOC(=O)Cc1csc(NC(NC(=O)OCC)(C(=O)OCC)C(F)(F)F)n1 (stereo unspecified),inactive: > 100 µM
4,CC(=O)OCCOCn1c2ccccc2c2c3c(c4c5ccccc5n(COCCOC(C)=O)c4c21)C(=O)N(Cc1ccccc1)C3=O,inactive: > 100 µM
5,NC1=Nc2ccccc2Sc2ccccc21,inactive: > 100 µM
6,CN(CCO)c1nc(=O)c2c(n1C1OC(CO)C(O)C(O)C1O)CCCC2 (stereo unspecified),inactive: > 100 µM
7,O=C(C/N=C(\CN(c1ccccc1)c1ccccc1)Oc1ccc(Cl)cc1Cl)n1ccnc1,inactive: > 100 µM
8,Cc1nc(N)nc(N)c1N1CCN(Cc2ccccc2)CC1,inactive: 36.4 µM
9,N=C(N)N/N=C/c1c(-c2ccc([N+](=O)[O-])cc2)nc2n1CCS2,inactive: 13.1 µM
10,Cc1cc(C)c(C#N)c(SC(=S)NC(=O)c2ccccc2)n1,inactive: > 100 µM
11,O=C(O)CCC(N/N=N/c1ccc(-c2nc3ccccc3[nH]2)cc1)C(=O)O (stereo unspecified),inactive: > 100 µM
12,COc1ccc2c(c1)OCC1Cc3cc4c(cc3OC21)OCO4 (stereo unspecified),inactive: 85.7 µM
13,Oc1ccc2ccccc2c1OCc1nnc(CCCCCCCCc2nnc(COc3c(O)ccc4ccccc34)o2)o1,inactive: > 100 µM
14,O=CC(O)C(O)C(O)C(O)COC(=O)NCCCCC(=O)C(F)(F)C(F)(F)C(F)(F)C(F)(F)C(F)(F)C(F)(F)C(F)(F)F (stereo unspecified),inactive: 53.7 µM
15,CC(C)C1=Cc2ccc3c(c2C(=O)C1=O)CCCC3,inactive: 10 µM
16,O=C(NN=C1NCCCCN1)Nc1ccc(Cl)cc1,inactive: > 100 µM
17,COC(=O)[C@@H]1Cc2cc(O)c(O)cc2C2(CCN(C)CC2)O1,inactive: > 10 µM
18,O=c1[nH]/c(=C/c2ccc(OCc3ccccc3)cn2)c(=O)[nH]/c1=C/c1ccccc1,active: 0.328 µM
19,CCOP(=O)(OCC)C(C(=O)OC)C(=O)C(=O)Nc1c(C)cc(Br)cc1C (stereo unspecified),inactive: > 100 µM
20,C=C1C(=O)O[C@H]2C[C@@]3(COC(C)=O)C=COC=C(COC(=O)C(C)C)C3CC12 (stereo partly specified),inactive: > 100 µM
21,O=[N+]([O-])c1cccc(CSc2nc(O)c3nc[nH]c3n2)c1,inactive: > 100 µM
22,Cc1ccc(S(=O)(=O)/N=C2/N(C)CCCS2(=O)=O)cc1,inactive: > 100 µM
23,Cc1cc2c(=O)cc(-c3ccc(F)cc3)oc2c(C(=O)O)c1C,inactive: > 100 µM

row,Structure (SMILES),GI50
1,"CC(C)[C@@H]1OC(=O)[C@@H](C)NC(=O)[C@@H]2CCCN2C1=O (HELM PEPTIDE1{[CC(C)[C@H](O[*:1])C(=O)[*:2]].P.[dA]}$PEPTIDE1,PEPTIDE1,1:R1-3:R2$$$V2.0)",inactive: > 100 µM
2,O=C(CN1CCN(Cc2ccccc2)CC1)c1ccc2[nH]c(=O)oc2c1,inactive: > 100 µM
3,CSC(SC)=C(C#N)C(=O)Nc1ccc(C)cc1,inactive: > 100 µM
4,O=C(CCN1CCCC1)c1ccc(Oc2ccc(F)cc2)cc1,inactive: > 100 µM
5,Nc1ccc2c(c1)S(=O)(=O)c1cc(N)ccc1-2,inactive: > 100 µM
6,CC(=O)O[C@]1(C)OC(=O)[C@@H](CC(C)C)N1[N+](=O)[O-],inactive: > 100 µM
7,CC(C)Cc1c(C#N)c(C#N)c(N)n1Cc1ccccc1,inactive: > 100 µM
8,Cc1c(F)c(N)c2c(=O)cc(-c3ccc(NC(=O)[C@@H](N)CCCCN)c(F)c3)oc2c1F,inactive: 8 µM
9,O=C(CCCn1cnc([N+](=O)[O-])n1)NCCCn1ccnc1[N+](=O)[O-],inactive: > 100 µM
10,CCOC(=O)C1C(c2ccc(OC)cc2)c2c(n[nH]c2O)CC1(C)O (stereo unspecified),inactive: > 100 µM
11,CCCCCCCCCCCCCC(=O)O[C@H]1CC[C@H](NC(=O)[C@H](OC)[C@H](O)[C@@H](O)[C@H](O)/C=C/C(C)C)C(=O)N(C)C1 [BENGAMIDE B],inactive: > 15 µM
12,CCOC(=O)C1C(C)C2(C#N)C(=N)OC1(C)C2(C#N)C#N (stereo unspecified),inactive: > 100 µM
13,CSc1cc(Cl)c(C)cc1S(=O)(=O)NC(=O)NNc1ccccn1,inactive: > 100 µM
14,CC1(C)OC2OC(COC(=O)c3ccc(C#N)cc3)C3OC(C)(C)OC3C2O1 (stereo unspecified),inactive: > 75 µM
15,CN(C)c1ccc(/C=C/c2ccnc3ccc4ccccc4c23)cc1,inactive: 26.7 µM
16,CC(NC(=O)C(N)CC(=O)O)NC(=O)N1CCCC1 (stereo unspecified),inactive: > 100 µM
17,Cn1c(=O)ccc2c(=O)c3ccccc3oc21,inactive: > 100 µM
18,N=c1nc(N)c2cc3c(N)nc(=N)c3cc12,inactive: 29.8 µM
19,COc1ccc(N(C(=O)Nc2ccc(Cl)c(Cl)c2)c2ccccc2)cc1,inactive: > 10 µM
20,CCOC(=O)Oc1ccc2c(c1)c(=O)c1c(NCCCN(CC)CC)ccc3nnn2c31,active: 0.723 µM
21,COCCOC(C)C(=O)C(O)S(=O)(=O)O (stereo unspecified),inactive: > 100 µM
22,CC1(C)CCCCCCC2CC2CCCCCC(C)(C)C1=O (stereo unspecified),inactive: > 100 µM
23,CC1(C)[C@@H](Cn2cnc3c(O)nc(N)nc32)CC[C@@]1(C)CO,inactive: > 100 µM
